The supplement of paper PMC3334620
The full ranking holds about 33,000 sequences; the median of “E-score (-0.5 to 0.5)” is about -0.035, and the highest 2% start at about 0.34. The list shows a part of the results.

target: T1, Mot3 (UniProt P54785); experiment: PBM E-score (8-mer binding enrichment) (E-score (-0.5 to 0.5)); higher = stronger / more preferred TF binding; most listed sequences are background and not binding sites; details: protein concentration: 200 nM; construct: GST-full length
T1 sequence: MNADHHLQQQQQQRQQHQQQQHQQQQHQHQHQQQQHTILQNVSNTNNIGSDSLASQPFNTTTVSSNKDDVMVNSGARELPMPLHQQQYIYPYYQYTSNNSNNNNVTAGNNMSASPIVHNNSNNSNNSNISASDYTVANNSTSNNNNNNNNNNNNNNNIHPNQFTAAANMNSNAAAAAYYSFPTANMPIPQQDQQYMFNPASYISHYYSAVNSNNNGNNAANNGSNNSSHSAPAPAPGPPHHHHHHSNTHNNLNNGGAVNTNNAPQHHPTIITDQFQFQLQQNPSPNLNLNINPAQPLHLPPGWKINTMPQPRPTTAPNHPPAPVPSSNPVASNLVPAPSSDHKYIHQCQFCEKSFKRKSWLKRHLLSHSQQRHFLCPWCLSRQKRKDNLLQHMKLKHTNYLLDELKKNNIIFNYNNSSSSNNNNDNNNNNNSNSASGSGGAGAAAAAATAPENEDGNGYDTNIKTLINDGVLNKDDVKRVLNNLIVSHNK
How it was run: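 Universal all-10-mer Agilent arrays, double-stranded by primer extension on fresh or once-stripped slides, were probed with about 100-200 nM GST-tagged yeast transcription factors made by PURExpress. Fluorescent anti-GST detected bound protein, and masliner normalised the scans. E-scores from the Universal PBM Analysis Suite were given to each ungapped eight-base word pooled with its reverse complement.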

Sequence	PBM E-score
GGTTCCCA	-0.17
CGCCGTTA	-0.107
GAACCAAC	-0.0375
ATCCGCCA	-0.251
GATATCGA	-0.096
ACTCTTAG	0.0367
GATCTCCA	-0.175
GACACCCA	-0.0443
GGGCCAGA	-0.172
AAGAATCT	-0.0574
ACGTTCAT	0.132
AGGTCGAT	-0.167
GGCTTCCC	-0.334
GATACGAC	-0.0987
CATCGAAC	-0.194
ACGGCAGA	-0.152
AAACTACA	0.273
GCCTGGGA	0.102
ACTGATCG	-0.149
ATAATGCG	0.149
GGCTCCCC	-0.124
CGGGATAC	-0.161
ATCATGTG	0.198
AACTTAGT	-0.042
AGTTCCTA	0.433

Sequence	PBM E-score
AGCACCCA	-0.0276
GAGGGGGA	-0.298
ATACGAAC	0.115
GCCATGGC	-0.261
ACAGAAGC	-0.143
CTCCCAGA	-0.0663
GAGAAGTA	-0.0782
ATTGCACA	0.0652
CGCACGAC	-0.0534
CGGGGAGC	-0.212
AGTGTGAT	0.0336
ACGCACAC	0.204
ATAAGCGA	0.0612
CGTCACAG	-0.0995
CCGACAAC	-0.0527
AATGAGAA	0.0624
CCTGTACC	0.151
CCCGAGGG	-0.101
GTGAAGTA	0.0411
TATAACAA	0.195
ATTTCGTC	0.0441
CCTGTCAC	0.0213
ACCCACCT	-0.292
AGTCGAAT	-0.205
AGGTGGGC	-0.0807

Sequence	PBM E-score
AACCGTTC	0.00589
GCACTTCC	-0.21
AAAGGCGG	0.0743
TAGGCAAA	0.48
AATGAGGC	0.158
GCAATCAC	-0.008
ATTCCCAC	-0.101
ACCGATTA	0.0858
AATAGGTC	0.0378
AATACCTG	0.123
ACTCGCTA	0.0321
AATAGCGA	0.184
GCCCGGAC	-0.312
AAACCACT	-0.0392
CTGATTGA	-0.0468
GAACAGGC	0.312
CCTCCGAA	-0.18
AAACCCTC	0.0338
TGTATAAA	0.257
ACAGAACC	-0.0861
ACCTGATC	-0.143
TATCAAGA	-0.00554
AACGCTTG	0.0105
CGAGAGCG	-0.0881
AACGATGA	-0.127

Sequence	PBM E-score
ACCCATAT	-0.118
GTTTACGA	0.206
ACTCGGAG	-0.214
CCGCTCCG	-0.227
CAGGCGCG	0.156
TACTATAA	0.0867
CAGCAACC	-0.184
GCCCGCAC	-0.186
ACGATATG	0.0654
ATGTACGC	0.222
ACATTTAA	0.252
CTCTTAAC	0.109
ACGAGAAC	0.0296
CTGACTCC	-0.211
GCACGGTA	-0.0184
GCTGATAC	-0.0605
CCCCAGGA	-0.166
CCGTCGAC	-0.171
AATGACCG	-0.198
ATCTGCTA	0.00543
AATGCGCG	0.0273
GTGGTAGA	-0.122
CTCGCGCA	-0.249
ACACGCCT	0.294
AATGGCAC	-0.119

Sequence	PBM E-score
GTCCCCAA	-0.232
GCAGGTAA	0.385
ATACCCAA	-0.0373
CAAGGCGG	-0.123
AGAAGCTA	-0.135
ACGTTGAC	0.0852
AATCGTCG	-0.0578
CCCCGAAA	-0.156
ACCTTAAG	0.0486
ATGAACCG	0.0149
ACGAAAGC	-0.058
TAATCACA	0.19
CCACAGAC	-0.113
GGACTCAC	-0.343
ACCGGTGG	-0.441
GAGGTCAC	-0.307
CGACCCCC	-0.258
CTTCTCGA	-0.00621
CTAAACGA	0.0191
AACGCCGG	-0.147
GACCTAAC	-0.0438
GGAAAGGA	0.0433
AAGTGTGT	0.209
GCCGATGA	-0.249
GGCTTCAC	-0.342

Sequence	PBM E-score
AGTCTGAT	-0.17
CGAGGACA	-0.0813
GAGACACC	-0.134
ATGCCCAA	-0.0977
ACGCGATC	0.0832
CATATAGA	-0.00822
ATCTGGTG	-0.00173
ATGTTGTA	0.286
AGCTGCTG	-0.0897
ACACAAAA	0.226
CTTTCCCC	-0.0549
ACTGAAAC	0.0956
CCGCCGGC	-0.256
CCGTCAGA	-0.265
GCGTAGAA	0.232
CACGACCC	-0.174
CGTCTATA	-0.0683
ACAGTAGT	-0.0747
ATTTTTAC	0.34
AACCTAGT	-0.0142
ACTGTGTG	0.185
GATTTGTA	0.182
GTTGTTGA	0.21
CGCTTTAG	-0.134
AGTGAACA	0.0824

Sequence	PBM E-score
TGGTCGAA	-0.124
TAGAAATA	0.145
AGAATGCC	-0.194
ATGTAAGG	0.298
CCAGAGCC	-0.163
GACTAATA	-0.0111
CGCTTCTC	-0.155
ACGGCCGA	-0.0938
CAGCGTCG	-0.00757
GGAACTGA	0.0134
ACGGATAG	-0.0201
AGTTAGCC	-0.17
CAAACCCG	-0.166
GATCTATA	-0.0636
CTGGCCAC	-0.0841
ACCTGTCC	-0.218
CCATATGC	-0.141
CAGCATCG	-0.243
AGGGATTC	-0.274
CGCTGGCA	-0.107
CCCCATAA	-0.0223
CCTATTAG	0.0489
AATTTTGC	0.169
AAGCCCTG	-0.0744
AATATGCG	-0.0421

Sequence	PBM E-score
GAAATGAC	0.0628
CCACTATA	-0.114
GTTTCCGA	0.122
CCCATTCG	0.0267
GCCGGAGC	-0.252
GCAGGACC	-0.237
AAATTCTG	-0.0708
AAGATTGG	-0.103
GGCACGAC	0.36
AGAGACTA	-0.146
CACAGCTC	0.0935
ACCTAGTG	0.0114
CAACTTCC	-0.0487
TCAGGGAA	-0.128
TCTTGCCA	-0.107
AAATGCAG	-0.0543
GCGCCATA	-0.291
AGTTTGCA	-0.0759
CCGATCCC	-0.343
CACAGATC	0.0715
AATGGGTC	-0.358
CGTCGTAA	0.0759
ACCATAAT	-0.0317
CATTCACA	0.0613
ACTTGCTC	-0.12

Sequence	PBM E-score
CCCAGGCG	-0.061
CTCTTCTC	-0.15
CATGTTTA	0.371
GTCAGTTA	-0.165
CCGGCAAA	-0.0759
GTAATAAA	0.28
AGCACAAT	-0.00086
ACACCATC	0.122
ACCTGTTC	0.152
AAAGACAA	0.16
CATGTGGG	-0.0314
AACGGTTC	-0.172
CACAGTGA	0.0683
ATCTACTG	-0.0684
GCACGTTA	0.225
ACCGACGT	-0.0732
TAACGGAA	-0.0117
CACTTGGG	-0.201
ACCCGGGT	-0.259
